Data reported in patent US12338291B2, “Humanized antibody molecules to CD138 and uses thereof” (VISTERRA, INC., priority 2019, dated 2025).

How the values were obtained:
CD138+ MM1.S cells [1] = assay: Antibody binding to MM1.S cells by flow cytometry; parameters: species or system human; conditions: FIG. 3
Description: (§1) In one experiment, the humanized variants of monoclonal antibody 2810 were assessed for their capacity to bind to CD138 on the surface of cells. Briefly, the humanized variants of antibody 2810 were produced in HEK 293 cells following transient transfection. The antibodies were then serially diluted three-fold. Antibody binding to membrane CD138 was evaluated using the CD138+ human lymphoblastic myeloma cell line U266 and quantified by flow cytometry. Antibody cell binding was reported as geometric mean fluorescence intensity (MFI). Binding data were plotted using nonlinear regression analysis and a 4-parameter curve fit.
First, humanized anti-CD138 antibody variants 3821, 4321, 4320, 4521, 4326, and 3820 were evaluated for binding to three different CD138+ multiple myeloma related cell lines: MM1.S, LP-1, and RPMI 8226. Antibody binding was measured by flow cytometry as described in Example 15.

[2] = test system: autologously-derived myeloma cells; assay: Killing of autologously-derived myeloma cells from relapsed/refractory patients; format: cell-based, human
CD138+ LP-1 cells = assay: Luciferase-based ADCC reporter assay against LP-1; format: cell-based, human; conditions: 3-fold dilutions from 10 μg/mL, E:T 10:1, 16 h, FIG. 4
Description: (§2) In another experiment, the ADCC activity of the humanized variants of anti-CD138 antibody 2810 was assessed. Briefly, the humanized variant antibodies were produced by transient transfection of HEK 293 cells metabolically altered for purposes of reduced Fc fucosylation. The antibodies were then evaluated for antibody dependent cellular cytotoxicity (ADCC) activity against CD138^+ human lymphoblastic myeloma U266 cells in a luciferase based ADCC reporter assay using, as effector cells, engineered Jurkat cells stably transfected with the human FcγRIIIa receptor. U266 cells were incubated with mAbs that were 3-fold serially diluted from a starting concentration of 3 μg/mL and added to effector cells and CD138+U266 multiple myeloma target cells at a cell ratio of effector:target of 10:1. After 16-hour incubation at 37° C., luciferase activity was assessed as a measure of ADCC activity and reported as relative luminescence units (RLU). […]
(§3) Second, humanized anti-CD138 antibody variants 3821, 4321, 4320, 4521, 4326, and 3820 were assessed for ADCC activity against U266, MM1.S, LP-1, and RPMI 8226 CD138^+ multiple myeloma cell lines using a luciferase based ADCC reporter assay, as described in Example 15. […] After a 16 hour incubation at 37° C., cellular luciferase levels were quantified as a measure of ADCC activity and reported as relative luminescence units (RLU).

CD138+ MM1.S cells [3] = assay: Luciferase-based ADCC reporter assay against MM1.S; format: cell-based, human; conditions: 3-fold dilutions from 10 μg/mL, E:T 10:1, 16 h, FIG. 4
Description: as §2, §3

human CD138 peptide 2A = biological target: T1, human CD138 peptide 2A (Homo sapiens, UniProt P18827); assay: Antigen capture ELISA, binding to CD138 peptide 2A; conditions: FIG. 10
T1 construct: Pep2a; 88-121; 10; 34
T1 sequence (P18827 88-121 limits assumed): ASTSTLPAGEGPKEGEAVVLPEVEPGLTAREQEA
Description: 1 or select human CD138 derived peptides (Table 3) was evaluated by antigen capture ELISA. In brief, MaxiSorp™ plates were first coated with antibodies 4320 or BB4 at a 0.5 μg/ml concentration overnight (12-15 hours) at 2-8° C. The immobilized monoclonal antibodies were tested for binding to biotinylated recombinant CD138 extracellular domain or peptides 2A, peptide 6A in 5-fold serial antigen dilutions starting at starting at a 50 nM concentration. HRP-conjugated Anti-biotin secondary antibody (1:10000 dilution) was used for detection.

[4] = test system: CD138+ human lymphoblastic myeloma U266 cells; assay: Luciferase-based ADCC reporter bioassay (Jurkat FcγRIIIa effector cells) against U266; format: cell-based; conditions: 3-fold dilutions from 10 μg/mL, E:T 10:1, 16 h, FIG. 4
Description: as §2
as §3, with “(RLU). […]” for “(RLU).”

[5] = Antibody serum titers (PK) in xenograft mice by human IgG ELISA (Example 7); format: in vivo, mouse
Description: Non-terminal blood sampling was taken weekly from 4 mice per group starting on day 14 prior to first dose day 15, 24 hour post-first dose day 20, prior to third dose day 27, prior to fifth dose and day 34, prior to seventh dose (if applicable). Animals chosen for weekly sampling alternated between animals 1-4 and 5-8 in each group to conform to a two-week bleeding schedule for each individual animal One hundred microliters of whole blood were collected via retro-orbital puncture and processed into serum for human antibody titer determination by ELISA. Human IgG1 antibody titers were measured in mouse sera using Human IgG Quantitative ELISA Kit, Bethyl Labs, (Catalog #E80-104) based on the manufacturer's recommendation, incorporating modifications as needed. Sera were diluted from 1:50-1:1350, as needed, to conform to preset limits of assay linearity and quantification (LOQ).

[6] = Antibody production titers in Chinese hamster ovary cells; conditions: CHO transient transfection, after Protein A purification
Excerpt: The yields represent antibody amounts following purification from cell culture media by Protein A affinity chromatography, carried out under identical transfection conditions and culture scale. Differential pre-purification titers based on quantification using Protein-A biosensors (bio-layer interferometry) of antibody in culture media was also noted likewise indicating differential expression levels (antibody titers).

[7] = biological target: T2, CD138 on MM1.S (luc) cells (Homo sapiens, UniProt P18827); assay: mAb 4320/CD138 binding assay on MM1.S (luc) cells by flow cytometry
T2 construct: endogenous in cells; host or cells: MM1.S (luc) human multiple myeloma cell line (luciferase-expressing)
T2 sequence (P18827 23-310): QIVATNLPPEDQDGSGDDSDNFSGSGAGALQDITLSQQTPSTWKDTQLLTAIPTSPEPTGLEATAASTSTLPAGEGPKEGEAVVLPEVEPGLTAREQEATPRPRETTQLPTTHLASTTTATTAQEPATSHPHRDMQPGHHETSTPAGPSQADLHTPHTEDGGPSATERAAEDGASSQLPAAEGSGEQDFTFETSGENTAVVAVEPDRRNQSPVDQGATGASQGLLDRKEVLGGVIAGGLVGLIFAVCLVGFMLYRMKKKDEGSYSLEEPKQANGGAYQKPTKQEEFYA

[8] = biological target: T3, membrane CD138 on U266 cells (Homo sapiens, UniProt P18827); assay: Antibody binding to membrane CD138 on U266 cells by flow cytometry; conditions: FIG. 9A, mAb 4320 vs BB4
T3 construct: endogenous in cells; host or cells: U266 human lymphoblastic myeloma cell line
T3 sequence (P18827 23-310): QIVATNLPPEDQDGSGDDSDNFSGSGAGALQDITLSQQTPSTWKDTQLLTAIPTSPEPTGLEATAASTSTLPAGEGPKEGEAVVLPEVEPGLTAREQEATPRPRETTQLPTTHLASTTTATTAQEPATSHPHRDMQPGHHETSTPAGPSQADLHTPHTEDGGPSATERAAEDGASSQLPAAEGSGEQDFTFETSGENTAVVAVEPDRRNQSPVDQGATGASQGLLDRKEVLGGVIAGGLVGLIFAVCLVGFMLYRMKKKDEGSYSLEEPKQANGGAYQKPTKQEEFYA
Description: as §1
Antibody cell binding was reported as geometric mean fluorescence intensity (MFI). Binding data were plotted using nonlinear regression analysis and a 4-parameter curve fit.

B1: mAb 4320: humanized anti-CD138 IgG1 kappa antibody; VH SEQ ID NO: 471, VL SEQ ID NO: 475; HC SEQ ID NO: 527, LC SEQ ID NO: 528 (antibody)
heavy: QVQLVQSGAEVKKPGASVKVSCKASGYSFSSYYMHWVRQAPGQGLEWMGTIHPSDSTTNYNQKFQGRVTMTVDTSTRTAYMELSSLRSEDTAVYYCANFVYWGQGTTVTVSSASTKGPSVFPLAPSSKSTSGGTAALGCLVKDYFPEPVTVSWNSGALTSGVHTFPAVLQSSGLYSLSSVVTVPSSSLGTQTYICNVNHKPSNTKVDKRV[human IgG1 Fc not spelt out]
light: DIVMTQTPLSLSVTPGQPASISCKSSKSLLYKDGKTYLNWFLQKPGQSPQLLIYVVSTRASGVPDRFSGSGSGTDFTLKISRVEAEDVGVYYCQQLVEYPYTFGQGTKLEIKRTVAAPSVFIFPPSDEQLKSGTASVVCLLNNFYPREAKVQWKVDNALQSGNSQESVTEQDSKDSTYSLSSTLTLSKADYEKHKVYACEVTHQGLSSPVTKSFNRGEC
CD138+ MM1.S cells [1]
  Antibody binding by flow cytometry: dose-dependent binding
[2]
  Killing of patient-derived myeloma cells: effectively kills
CD138+ LP-1 cells
  ADCC activity (RLU): induced ADCC activity
CD138+ MM1.S cells [3]
  ADCC activity (RLU): induced ADCC activity
Human CD138 peptide 2A
  Binding to peptide 2A: substantially higher affinity than to 6A
[4]
  ADCC activity (RLU): induced ADCC activity
[5]; C.B-17 SCID mice, repeat dosing
  Anti-drug antibody response (ADA): No anti-mAb 4320 antibody response
[5]; mouse, in vivo
  PK profile compared to parental mAb 2810: modestly better PK profile
[5]; repeat dosing at 4, 8, 16 mg/kg, FIG. 17
  Serum antibody levels vs dose: clear and reasonably linear dose response
[6]
  Expression: 106.4 mg/L
[7]; MM1.S (luc), 2.5 μg/mL
  Live cells staining positive for mAb 4320: greater than 96%
[7]; at 2.5 μg/mL
  Binding to MM1.S (luc) cells: robust and saturable binding
[8]
  Antibody cell binding (MFI): dose-dependent binding
